Structures are written as SMILES. The list shows a part of the results.

The test system of one experiment is HSkMC. Nature of the experiment: cytotoxicity call (relative viability < 0.9). The conditions noted are these: 10 µM.
A further experiment concerns HepG2. Kind of experiment: cytotoxicity call (relative viability < 0.9). The conditions noted are these: 10 µM.
The next experiment has as its system S. aureus RN4220. Nature of the experiment: growth inhibition call (relative growth <= 0.2). As to conditions: 50 µM.

Regarding `C[C@@H]1CN([C@H](C)CO)C(=O)c2cc(NS(=O)(=O)c3ccc(Cl)cc3)ccc2O[C@@H](C)CCCCO[C@@H]1CN(C)Cc1ccc(C(=O)O)cc1`, the cytotoxicity call in the experiment with HSkMC and in the experiment with HepG2 was “inactive” each time. Further, the growth inhibition call in the experiment with S. aureus RN4220 is “inactive”.
Take `Cc1noc(C)c1NC(=O)N[C@@H]1CC[C@H](CC(=O)N2CCN(C)CC2)O[C@@H]1CO`: the cytotoxicity call in the experiment on HSkMC and in the experiment with HepG2 was “inactive” throughout. Moreover, in the experiment with S. aureus RN4220, the growth inhibition call is “inactive”.
As to `O=C(C[C@@H]1CC[C@@H](NC(=O)CN2CCOCC2)[C@H](CO)O1)NCc1cccc(F)c1`, the cytotoxicity call in the experiment on HSkMC and in the experiment with HepG2 was “inactive” in each case. Further, the growth inhibition call in the experiment with S. aureus RN4220 is “inactive”.
Consider `Cl.NC(N)=NC(=O)Cc1c(Cl)cccc1Cl`, for which the cytotoxicity call in the experiment with HSkMC and with HepG2 was “inactive” each time. In the experiment on S. aureus RN4220, the growth inhibition call was “inactive”.
For `NC(=O)[C@H]1[C@@H]2C(=O)O[C@@H](c3ccccc3)[C@@H](c3ccccc3)N2[C@@H](c2ccc(OCCO)cc2)[C@]12C(=O)Nc1ccc(C#CC3(O)CCCCCC3)cc12`, the cytotoxicity call in the experiment with HSkMC and in the experiment on HepG2 was “inactive” each time. The growth inhibition call in the experiment on S. aureus RN4220 was “inactive”.
Consider `O=C(C[C@H]1CC[C@@H]2[C@H](COC[C@H](O)CN2C(=O)Nc2ccc(C(F)(F)F)cc2)O1)NCCc1ccncc1`, for which the cytotoxicity call with HSkMC and in the experiment on HepG2 was “inactive” throughout. In addition, in the experiment on S. aureus RN4220, the growth inhibition call was “active”.
For the molecule `CN(C)CCCCNC(=O)[C@H]1C[C@H]2C(=O)NCC(=O)N2[C@H]1c1cccc(OCCO)c1`, the cytotoxicity call with HSkMC and with HepG2 was “inactive” in each case. Besides, in the experiment on S. aureus RN4220, the growth inhibition call is “inactive”.
Consider `C[C@@H]1CN([C@@H](C)CO)C(=O)c2cc(NC(=O)CCC(F)(F)F)ccc2O[C@@H](C)CCCCO[C@H]1CN(C)Cc1ccccc1`, for which the cytotoxicity call with HSkMC and in the experiment on HepG2 was “inactive” throughout. Besides, the growth inhibition call in the experiment on S. aureus RN4220 was “inactive”.
As to `C[C@H]1CCCCO[C@H](CN(C)C(=O)Nc2cccc3ccccc23)[C@@H](C)CN([C@@H](C)CO)C(=O)c2cc(NC(=O)CCCN(C)C)ccc2O1`, the cytotoxicity call in the experiment with HSkMC and in the experiment on HepG2 was “inactive” throughout. For the same molecule, the growth inhibition call in the experiment on S. aureus RN4220 is “inactive”.
As for `COc1ccc2c3c([nH]c2c1)[C@@H](CO)N(C[C@]13CCN(CC1)C(=O)c1ccccc1F)C(=O)Nc1ccc(cc1)F`, the cytotoxicity call in the experiment with HSkMC and in the experiment with HepG2 was “inactive” throughout. The growth inhibition call in the experiment with S. aureus RN4220 is “inactive”.
In the case of `CCOC(=O)/C=C1\SC(=O)NC1=O`, the cytotoxicity call in the experiment with HSkMC and in the experiment with HepG2 was “inactive” throughout. For the same molecule, the growth inhibition call in the experiment with S. aureus RN4220 is “inactive”.
Consider `COc1ccc(C#Cc2ccc3c(c2)O[C@@H](CN(C)C(=O)CN2CCOCC2)[C@@H](C)CN([C@H](C)CO)S3(=O)=O)cc1`, for which the cytotoxicity call in the experiment with HSkMC and in the experiment with HepG2 was “inactive” in each case. The growth inhibition call with S. aureus RN4220 was “inactive”.
Consider `O=C(/C=C/c1cc2c(cc1Br)OCCO2)c1c(-c2ccccc2)c2cc(Cl)ccc2[nH]c1=O`, for which the cytotoxicity call with HSkMC and in the experiment on HepG2 was “active” each time. In addition, the growth inhibition call in the experiment on S. aureus RN4220 was “inactive”.
Turning to `C[C@H]1CN([C@@H](C)CO)C(=O)c2cccc(NC(=O)Nc3ccc(C(F)(F)F)cc3)c2O[C@H]1CN(C)Cc1ccncc1`, the cytotoxicity call in the experiment on HSkMC and in the experiment on HepG2 was “inactive” throughout. Also, in the experiment with S. aureus RN4220, the growth inhibition call was “inactive”.
For `CO[C@@H](C)n1cc(Br)c(=O)[nH]c1=O`, the cytotoxicity call in the experiment on HSkMC and in the experiment with HepG2 was “inactive” each time. In addition, in the experiment with S. aureus RN4220, the growth inhibition call is “inactive”.
On to `CCS(=O)(=O)N1C[C@]2(C1)CN([C@H](CO)c1[nH]c3cc(ccc3c12)OC)C(=O)Nc1c(noc1C)C`, for which the cytotoxicity call in the experiment on HSkMC and with HepG2 was “inactive” in each case. In the experiment on S. aureus RN4220, the growth inhibition call is “inactive”.
Regarding `C[C@H](CO)N1C[C@H](C)[C@@H](CN(C)C(=O)Nc2ccccc2)OCCCC[C@H](C)Oc2ccc(NC(=O)Nc3ccccc3)cc2C1=O`, the cytotoxicity call with HSkMC and in the experiment with HepG2 was “inactive” each time. Besides, the growth inhibition call with S. aureus RN4220 was “inactive”.
Consider `C[C@@H]1CN([C@@H](C)CO)C(=O)Cc2cc(NS(C)(=O)=O)ccc2O[C@H]1CN(C)Cc1ccc(C(=O)Nc2ccccc2N)cc1`, for which the cytotoxicity call with HSkMC and in the experiment on HepG2 was “inactive” each time. In addition, the growth inhibition call with S. aureus RN4220 is “inactive”.
As to `C=CCOC(=O)[C@H]1[C@@H]2C(=O)O[C@@H](c3ccccc3)[C@@H](c3ccccc3)N2[C@@H](c2cccc(OCCOC(=O)NCCCCCC(=O)NO)c2)[C@@]12C(=O)Nc1ccc(I)cc12`, the cytotoxicity call in the experiment on HSkMC and in the experiment on HepG2 was “inactive” throughout. For the same molecule, the growth inhibition call in the experiment on S. aureus RN4220 was “inactive”.
With `COc1ccc(NC(=O)Nc2ccc3c(c2)C(=O)N([C@H](C)CO)C[C@H](C)[C@H](CN(C)C(=O)NC(C)C)OCCCC[C@@H](C)O3)cc1`, the cytotoxicity call with HSkMC and in the experiment on HepG2 was “inactive” in each case. For the same molecule, the growth inhibition call with S. aureus RN4220 is “inactive”.
As to `COC(=O)C1=C(C)NC(C)=C(C(=O)OCCN2CCN(C(c3ccccc3)c3ccccc3)CC2)C1c1cccc([N+](=O)[O-])c1` (centres undefined), the cytotoxicity call with HSkMC is “inactive”. Moreover, in the experiment on HepG2, the cytotoxicity call was “active”. Further, in the experiment with S. aureus RN4220, the growth inhibition call is “inactive”.
With `Cc1cc(C(=O)Nc2cccc3c2O[C@H](CN(C)C(=O)Nc2ccccc2)[C@@H](C)CN([C@H](C)CO)C3=O)n(C)n1`, the cytotoxicity call in the experiment with HSkMC and in the experiment on HepG2 was “inactive” throughout. Further, the growth inhibition call with S. aureus RN4220 is “inactive”.
Take `C[C@H]1CCCCO[C@H](CN(C)Cc2ccc(C(F)(F)F)cc2)[C@@H](C)CN([C@@H](C)CO)C(=O)c2cc(NC(=O)NC3CCCCC3)ccc2O1`: the cytotoxicity call in the experiment on HSkMC is “inactive”. For the same molecule, the cytotoxicity call in the experiment with HepG2 is “active”. The growth inhibition call with S. aureus RN4220 is “inactive”.
For `CO[C@@H]1CN(C)C(=O)c2ccc(NS(C)(=O)=O)cc2OC[C@H](C)N(C(=O)C2CCCCC2)C[C@@H]1C`, the cytotoxicity call in the experiment with HSkMC and with HepG2 was “inactive” in each case. Also, in the experiment with S. aureus RN4220, the growth inhibition call was “inactive”.
On to `C[C@H]1CCCCO[C@H](CN(C)CC2CCCCC2)[C@@H](C)CN([C@@H](C)CO)C(=O)c2cc(NC(=O)Nc3ccccc3)ccc2O1`, for which the cytotoxicity call in the experiment on HSkMC and in the experiment with HepG2 was “inactive” each time. Also, the growth inhibition call with S. aureus RN4220 is “inactive”.
Take `COc1ccc(CN(C)C[C@H]2Oc3ccc(NS(=O)(=O)c4cn(C)cn4)cc3CC(=O)N([C@@H](C)CO)C[C@@H]2C)cc1`: the cytotoxicity call with HSkMC and with HepG2 was “inactive” each time. For the same molecule, in the experiment on S. aureus RN4220, the growth inhibition call is “inactive”.
`O=C(C[C@H]1C=C[C@@H](NS(=O)(=O)c2ccc(F)cc2)[C@H](CO)O1)NCCN1CCCCC1`: the cytotoxicity call with HSkMC and in the experiment on HepG2 was “inactive” each time. The growth inhibition call in the experiment with S. aureus RN4220 was “inactive”.
On to `C[C@@H]1CCCCO[C@@H](CN(C)C(=O)Nc2ccccc2)[C@H](C)CN([C@@H](C)CO)C(=O)c2cc(NC(=O)Nc3ccc(F)cc3)ccc2O1`, for which the cytotoxicity call in the experiment on HSkMC (human skeletal muscle cells) and in the experiment on HepG2 was “inactive” throughout. Further, in the experiment on S. aureus RN4220, the growth inhibition call is “inactive”.

For the origin of these results see the antibiotic and cytotoxicity screens of Wong et al. (2023).
